# The other results are listed elsewhere or left out.
# B1: Gal 2 (Homo sapiens), P05162 (protein)
# chain: MTGELEVKNMDMKPGSTLKITGSIADGTDGFVINLGQGTDKLNLHFNPRFSESTIVCNSLDGSNWGQEQREDHLCFSPGSEVKFTVTFESDKFKVKLPDGHELTFPNRLGHSHLSYLSVRGGFNMSSFKLKE
# Tests used:
# Test in all cases: glycan array binding signal (z-score within array); higher = stronger binding
# Conditions in all cases: glycan notation: IUPAC condensed, linker removed
# [1] = biological target: Neu5Ac(a2-6)Gal(b1-4)GlcNAc(b1-2)[Neu5Ac(a2-6)Gal(b1-4)GlcNAc(b1-4)]Man(a1-3)[GlcNAc(b1-4)][Neu5Ac(a2-6)Gal(b1-4)GlcNAc(b1-2)[Neu5Ac(a2-6)Gal(b1-4)GlcNAc(b1-6)]Man(a1-6)]Man(b1-4)GlcNAc(b1-4)GlcNAc
# Outline: (§1)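 Negative Z-scores can be read as non-binding. The Z-score is calculated within each array and then averaged across arrays of one protein sequence at different concentrations or buffers and across linkers. Arrays, 3228 in all, were curated from the Consortium for Functional Glycomics database and kept only where the protein sequence was available.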
# [2] = biological target: Neu5Ac(a2-6)Gal(b1-4)GlcNAc(b1-2)[Neu5Ac(a2-6)Gal(b1-4)GlcNAc(b1-4)]Man(a1-3)[GlcNAc(b1-4)][Neu5Ac(a2-6)Gal(b1-4)GlcNAc(b1-4)Man(a1-6)]Man(b1-4)GlcNAc(b1-4)GlcNAc
# Outline: as §1
# [3] = biological target: Neu5Ac(a2-6)Gal(b1-4)GlcNAc(b1-2)[Neu5Ac(a2-6)Gal(b1-4)GlcNAc(b1-6)]Man(a1-6)[Neu5Ac(a2-6)Gal(b1-4)GlcNAc(b1-2)Man(a1-3)][GlcNAc(b1-4)]Man(b1-4)GlcNAc(b1-4)GlcNAc
# Outline: as §1
# [4] = biological target: Neu5Ac(a2-6)Gal(b1-4)GlcNAc(b1-3)Gal(b1-3)GlcNAc
# Outline: as §1
# [5] = biological target: Neu5Ac(a2-6)Gal(b1-4)GlcNAc(b1-3)Gal(b1-4)GlcNAc
# Outline: as §1
# [6] = biological target: Neu5Ac(a2-6)Gal(b1-4)GlcNAc(b1-3)Gal(b1-4)GlcNAc(b1-2)Man(a1-3)[Neu5Ac(a2-6)Gal(b1-4)GlcNAc(b1-3)Gal(b1-4)GlcNAc(b1-2)Man(a1-6)]GalNAc
# Outline: as §1
# [7] = biological target: Neu5Ac(a2-6)Gal(b1-4)GlcNAc(b1-3)Gal(b1-4)GlcNAc(b1-3)Gal(b1-4)GlcNAc
# Outline: as §1
# [8] = biological target: Neu5Ac(a2-6)Gal(b1-4)GlcNAc(b1-3)Gal(b1-4)GlcNAc(b1-3)Gal(b1-4)GlcNAc(b1-2)Man(a1-3)[Neu5Ac(a2-6)Gal(b1-4)GlcNAc(b1-3)Gal(b1-4)GlcNAc(b1-3)Gal(b1-4)GlcNAc(b1-2)Man(a1-6)]GalNAc
# Outline: as §1
# [9] = biological target: Neu5Ac(a2-6)Gal(b1-4)GlcNAc(b1-3)Gal(b1-4)GlcNAc(b1-3)GalNAc
# Outline: as §1
# [10] = biological target: Neu5Ac(a2-6)Gal(b1-4)GlcNAc(b1-3)Gal(b1-4)GlcNAc(b1-3)[Neu5Ac(a2-6)Gal(b1-4)GlcNAc(b1-3)Gal(b1-4)GlcNAc(b1-6)]GalNAc
# Outline: as §1
# [11] = biological target: Neu5Ac(a2-6)Gal(b1-4)GlcNAc(b1-3)Gal(b1-4)GlcNAc(b1-6)[Gal(b1-3)]GalNAc
# Outline: as §1
# [12] = biological target: Neu5Ac(a2-6)Gal(b1-4)GlcNAc(b1-3)Gal(b1-4)[Fuc(a1-3)]GlcNAc(b1-3)Gal(b1-4)[Fuc(a1-3)]GlcNAc
# Outline: as §1
# [13] = biological target: Neu5Ac(a2-6)Gal(b1-4)GlcNAc(b1-3)GalNAc
# Outline: as §1
# [14] = biological target: Neu5Ac(a2-6)Gal(b1-4)GlcNAc(b1-3)[Neu5Ac(a2-6)Gal(b1-4)GlcNAc(b1-6)]GalNAc
# Outline: as §1
# [15] = biological target: Neu5Ac(a2-6)Gal(b1-4)GlcNAc(b1-6)GalNAc
# Outline: as §1
# [16] = biological target: Neu5Ac(a2-6)Gal(b1-4)GlcNAc(b1-6)[Gal(b1-3)GlcNAc(b1-3)]Gal(b1-4)Glc
# Outline: as §1
# [17] = biological target: Neu5Ac(a2-6)Gal(b1-4)GlcNAc(b1-6)[Gal(b1-3)]GalNAc
# Outline: as §1
# [18] = biological target: Neu5Ac(a2-6)Gal(b1-4)GlcNAc6S
# Outline: as §1
# Neu5Ac(a2-6)GalNAc = biological target: Neu5Ac(a2-6)GalNAc
# Outline: as §1
# [19] = biological target: Neu5Ac(a2-6)GalNAc(b1-4)GlcNAc
# Outline: as §1
# [20] = biological target: Neu5Ac(a2-6)GalNAc(b1-4)GlcNAc6S
# Outline: as §1
# [21] = biological target: Neu5Ac(a2-6)GlcNAc(b1-4)GlcNAc
# Outline: as §1
# [22] = biological target: Neu5Ac(a2-6)GlcNAc(b1-4)GlcNAc(b1-4)GlcNAc
# Outline: as §1
# Neu5Ac(a2-8)Neu5Ac = biological target: Neu5Ac(a2-8)Neu5Ac
# Outline: as §1
# [23] = biological target: Neu5Ac(a2-8)Neu5Ac(a2-3)Gal(b1-3)GalNAc(b1-4)[Neu5Ac(a2-3)]Gal(b1-4)Glc
# Outline: as §1
# [24] = biological target: Neu5Ac(a2-8)Neu5Ac(a2-3)Gal(b1-3)GalNAc(b1-4)[Neu5Ac(a2-8)Neu5Ac(a2-3)]Gal(b1-4)Glc
# Outline: as §1
# [25] = biological target: Neu5Ac(a2-8)Neu5Ac(a2-3)Gal(b1-4)Glc
# Outline: as §1
# [26] = biological target: Neu5Ac(a2-8)Neu5Ac(a2-3)Gal(b1-4)GlcNAc
# Outline: as §1
# [27] = biological target: Neu5Ac(a2-8)Neu5Ac(a2-3)[Gal(b1-3)GalNAc(b1-4)]Gal(b1-4)Glc
# Outline: as §1
# [28] = biological target: Neu5Ac(a2-8)Neu5Ac(a2-3)[GalNAc(b1-4)]Gal(b1-4)Glc
# Outline: as §1
# [29] = biological target: Neu5Ac(a2-8)Neu5Ac(a2-8)Neu5Ac
# Outline: as §1
# [30] = biological target: Neu5Ac(a2-8)Neu5Ac(a2-8)Neu5Ac(a2-3)Gal(b1-4)Glc
# Outline: as §1
# [31] = biological target: Neu5Ac(a2-8)Neu5Ac(a2-8)Neu5Ac(a2-3)[Gal(b1-3)GalNAc(b1-4)]Gal(b1-4)Glc
# Outline: as §1
# [32] = biological target: Neu5Ac(a2-8)Neu5Ac(a2-8)Neu5Ac(a2-3)[GalNAc(b1-4)]Gal(b1-4)Glc
# Outline: as §1
# [33] = biological target: Neu5Ac(a2-8)Neu5Ac(a2-8)Neu5Ac(a2-8)Neu5Ac(a2-3)[GalNAc(b1-4)]Gal(b1-4)Glc
# Outline: as §1
# [34] = biological target: Neu5Ac(a2-8)Neu5Gc(a2-3)Gal(b1-4)GlcNAc
# Outline: as §1
# Neu5Ac(b1-6)GalNAc = biological target: Neu5Ac(b1-6)GalNAc
# Outline: as §1
# [35] = biological target: Neu5Ac(b2-6)Gal(b1-4)GlcNAc
# Outline: as §1
# Neu5Ac(b2-6)GalNAc = biological target: Neu5Ac(b2-6)GalNAc
# Outline: as §1
# [36] = biological target: Neu5Ac9Ac(a2-3)Gal(b1-4)GlcNAc
# Outline: as §1
# [37] = biological target: Neu5Ac9Ac(a2-6)Gal(b1-4)GlcNAc
# Outline: as §1
# [38] = biological target: Neu5Gc(a2-3)Gal(b1-3)GlcNAc
# Outline: as §1
# [39] = biological target: Neu5Gc(a2-3)Gal(b1-3)[Fuc(a1-4)]GlcNAc
# Outline: as §1
# Neu5Gc(a2-3)Gal(b1-4)Glc = biological target: Neu5Gc(a2-3)Gal(b1-4)Glc
# Outline: as §1
# [40] = biological target: Neu5Gc(a2-3)Gal(b1-4)GlcNAc
# Outline: as §1
binder,measurement,setting,value
B1,glycan array binding signal (z-score),[1],-0.284
same,glycan array binding signal (z-score),[2],-0.198
same,glycan array binding signal (z-score),[3],-0.233
same,glycan array binding signal (z-score),[4],-0.068
same,glycan array binding signal (z-score),[5],-0.263
same,glycan array binding signal (z-score),[6],-0.008
same,glycan array binding signal (z-score),[7],-0.353
same,glycan array binding signal (z-score),[8],0.028
same,glycan array binding signal (z-score),[9],-0.109
same,glycan array binding signal (z-score),[10],0.175
same,glycan array binding signal (z-score),[11],0.018
same,glycan array binding signal (z-score),[12],-0.229
same,glycan array binding signal (z-score),[13],-0.083
same,glycan array binding signal (z-score),[14],-0.306
same,glycan array binding signal (z-score),[15],-0.021
same,glycan array binding signal (z-score),[16],-0.21
same,glycan array binding signal (z-score),[17],0.069
same,glycan array binding signal (z-score),[18],-0.271
same,glycan array binding signal (z-score),Neu5Ac(a2-6)GalNAc,-0.259
same,glycan array binding signal (z-score),[19],-0.284
same,glycan array binding signal (z-score),[20],-0.19
same,glycan array binding signal (z-score),[21],-0.171
same,glycan array binding signal (z-score),[22],-0.178
same,glycan array binding signal (z-score),Neu5Ac(a2-8)Neu5Ac,-0.23
same,glycan array binding signal (z-score),[23],-0.254
same,glycan array binding signal (z-score),[24],-0.09
same,glycan array binding signal (z-score),[25],-0.379
same,glycan array binding signal (z-score),[26],-0.102
same,glycan array binding signal (z-score),[27],-0.206
same,glycan array binding signal (z-score),[28],-0.27
same,glycan array binding signal (z-score),[29],-0.235
same,glycan array binding signal (z-score),[30],-0.247
same,glycan array binding signal (z-score),[31],-0.136
same,glycan array binding signal (z-score),[32],-0.116
same,glycan array binding signal (z-score),[33],-0.232
same,glycan array binding signal (z-score),[34],-0.088
same,glycan array binding signal (z-score),Neu5Ac(b1-6)GalNAc,-0.388
same,glycan array binding signal (z-score),[35],-0.244
same,glycan array binding signal (z-score),Neu5Ac(b2-6)GalNAc,-0.244
same,glycan array binding signal (z-score),[36],-0.21
same,glycan array binding signal (z-score),[37],-0.285
same,glycan array binding signal (z-score),[38],-0.248
same,glycan array binding signal (z-score),[39],-0.249
same,glycan array binding signal (z-score),Neu5Gc(a2-3)Gal(b1-4)Glc,-0.261
same,glycan array binding signal (z-score),[40],-0.265

# From the supplement of paper PMC8728848
